Laboratory results taken from the supplement of paper PMC10338343.
± gives the standard deviation. This is a selection; strong and weak results do not stand in their true shares.

What follows are sequences tested on MIWI (PIWIL1) piRISC loaded with L1MC piRNA (30 nt) (assay: pre-steady-state target cleavage rate (min^-1); MIWI and MILI are mouse PIWI proteins and EfPiwi is from a freshwater sponge; tags in brackets are library labels; higher = faster piRNA-guided slicing of the target). Details: guide: L1MC piRNA 5'p-UAACUAAAUACUAUGCAAGCUGUAGGUCCU; auxiliary factor: 500 nM mouse GTSF1.
Outline: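 Using HEPES–potassium acetate buffer at 33 °C, 1 nM active affinity-purified piRISC with a single synthetic guide was mixed with 0.1 nM transcribed, DNA-blocked target RNA library for 0–8 or 0–960 min, with or without 500 nM GTSF1 partner protein. Uncleaved targets were sequenced and normalised to depth and to weakly complementary targets, and three trials were pooled with k3 capped at 0.0001 min^-1. A burst-and-steady-state fit gave the pre-steady-state cleavage rate.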

Sequence | pre-steady-state target cleavage rate
AGGACCUACAGCUUGGUAAGUAUUUAGUUA | 0.094 ± 0.016
UCCUGGAACAGCUUGCAUAGUAAUUAGAAA | 0.293 ± 0.055
UCCUGGAUGAGCUUGCAAUAGUAUUUAGUUA | 0.00429 ± 0.0028
UCGACCUACAGCUUCGUUAGUAUUUAGUAA | 0.0294 ± 0.006
UCCUGCUACAGCUUGCAUAGUAUUUUCUAA | 0.218 ± 0.037
UCCUGGAUGAGCUUCCAAAGUAUUUAGUUA | 0.0261 ± 0.007
UCCUGGAUCAGGUUGCAUAGUAUUUACAAA | 0.036 ± 0.012
UCGACCUACAGGAUGCAUAGUAUUUAGAAA | 0.43 ± 0.058
UGGACCUAGUCCUUGCAUAGUAUUUAGAAA | 0.0216 ± 0.0097
UGGACCUACAGCUUGCAUAGUUUUUUCAAA | 0.0837 ± 0.02
UCCUGGAUGUCGAACGAUACUAUUUAGUUA | < 0.0001
UCCACCUACAGCUUGCAUAAGUAUUUAGUUA | 0.012 ± 0.0067
UCCUGGAACAGCUUGCAUAGUAUAAAGAAA | 0.167 ± 0.043
UCCUGGAUCAGCUUGCAUACUAUUUACAAA | 0.0374 ± 0.012
UCGACCUACAGCUUCCAAAGUAUUUAGUUA | 0.436 ± 0.024
UCCACCUACAGCUUGCAUAGUAUUAUCAAA | 0.273 ± 0.043
UCCUGGAUGUCCAUGCAUAGUAUUUAGUAA | 0.0109 ± 0.0052
UCCUGGAUCAGCAUGCAUAGUAUUUUCAAA | 0.105 ± 0.025
UCCUCCUACAGCUUGCAUACAAUUUAGAAA | 0.0177 ± 0.008

Sequence | pre-steady-state target cleavage rate
UCCUGCUACAGCUUGCAUAGUAAUUACAAA | 0.193 ± 0.046
UCCUGGAACAGCUUGCAUAGAAUUUACAAA | 0.148 ± 0.034
UCCUCCUACAGCUUGCUAAGUAUUUAGAAA | 0.0576 ± 0.017
UCCUGGAUGUCGAACGUAAGUUUUUUGUUA | < 0.0001
UCGACCUACAGCUUGCAUAGUAAAUUCAAA | 0.709 ± 0.18
AGGACCUACAGCUUCGAUAGUAUUUAGUUA | 0.818 ± 0.056
UCCUGGAUGUGCUUGCAUAGUAUAUACUUA | 0.014 ± 0.0055
AGGACCUACAGCUUGCAUAAGUAUUUAGUUA | 0.338 ± 0.12
UCCUGGAUCACCUAGCAUAGUAUUUAGUUA | 0.0493 ± 0.011
UCCUGGAUGUCGAAGCAUAGUAUUUAGUUUA | 0.00467 ± 0.0032
UCCUGCUACAGCUUGCAUACUAUUUAGAAA | 0.137 ± 0.021
AGGACCUACAGCUUGCAUAGUUAAUUCAAA | 0.786 ± 0.23
UCCUGGAUCAGCUUGCAUAGAAUUUUCAAA | 0.00664 ± 0.005
UCCACCUACACGAUGCAUAGUAUUUAGAAA | 0.223 ± 0.038
UCCACCUACAGCUUGCAUAGUAAAUUCAAA | 0.228 ± 0.062
UCCUGCUACACGAUGCAUAGUAUUUAGAAA | 0.106 ± 0.024
UCCUGGAUGUCGUUGCAUAGUAUUAAGUUA | 0.00483 ± 0.0034
UCCUGGAUCAGCUACCAUAGUAUUUAGUUA | 0.021 ± 0.005

Same assay, conditions: guide: L1MC piRNA 5'p-UAACUAAAUACUAUGCAAGCUGUAGGUCCU; auxiliary factor: none (no GTSF1)

Sequence | pre-steady-state target cleavage rate
UCCUGGAUGUCGAACGAUUGUAUUUAGAUA | < 0.0001
UCCUGGAUGUCGAACGUAAGAAUUUAGAUA | < 0.0001
UCGUGCUACAGCUUGCAUAGUAUUUAGUUA | 0.0704 ± 0.012
